Laboratory results reported in PubChem BioAssay AID662 (National Center for Advancing Translational Sciences (NCATS), 2007).
The whole screen tested about 71,000 compounds, of which about 1,800 (2.5%) were called active. The inconclusive results got no clear call from the source; some entries with a clear call stand among them for comparison. The call rests on the fitted dose curve; in most records, active means well fitted activation curve with a large enough effect in the signal ratio, with a control signal flat (not every such curve was filed as active); inconclusive means small, poorly fitted or top-dose-only effect, or effect the other way, or a change in a side signal; inactive means flat fitted curve, though single readings scatter; the % refers to the signal ratio. Potencies beside an inconclusive call are fits to weak or partial responses and may not hold up.
Potency means the concentration at half of the fitted maximal effect; tags describe the fitted curve by direction and shape.

Test: Cell signaling CRE-BLA (Fsk stim); on activity change, negative = inhibition: % of control where 0% means no effect
Conditions: CHO CRE-bla reporter (cAMP response element driving beta-lactamase), forskolin EC10, beta-lactamase ratio; activity change, negative = inhibition: at 38.2 µM (top of the series) unless noted
Procedure, shortened: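 CHO CRE-bla cells, overnight plating in Opti-MEM with 0.5% dialyzed FBS; cpd titration + EC10 NKH 477, 3 h 37 °C; CCF4 2 h RT; ex 405/em 460 vs 530 ratio → %Activity, AC50.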
In the case of `COCCNC(=O)CSc1ccc(C)cc1`, the activity change, negative = inhibition is reported as inconclusive: 3.62% [at 7.6 µM].
With `CCOC(=O)c1c(COc2ccccc2)oc2ccc(O)cc12` the activity change, negative = inhibition was inconclusive: -16.3%.
In the case of `O=C(NC[C@@H](O)CO)c1c(I)c(C(=O)NC[C@@H](O)CO)c(I)c(N(CCO)C(=O)CO)c1I`, the “activity change, negative = inhibition” value is reported as inactive: -7.05% [at 17.1 µM].
In the case of `COc1ccc(OCc2ccc(-c3nc4ccccc4c(=O)n3N)o2)cc1`, the “activity change, negative = inhibition” value is reported as inactive: 13.7%.
In the case of `COc1cccc(Cn2c(=O)c(-c3ccc(F)cc3)nc3cnc(N(C)C)nc32)c1`, the Potency is reported as inconclusive: 1 µM [rising, full curve].
In the case of `O=C(NCc1ccccc1)c1cc(-c2cccs2)on1`, the activity change, negative = inhibition is reported as inconclusive: -26.3%.
With `CC1CCC(NC(=O)Cn2c(=O)[nH]c3ccsc3c2=O)CC1` (stereo not given) the activity change, negative = inhibition was inconclusive: -27.1%.
For `Cc1cccc(C(=O)OCc2cc3ccccc3[nH]c2=O)c1`, the Potency was inconclusive: 12.6 µM [rising, single point].
With `COc1ccc(-c2ccc(Nc3ccc(S(=O)(=O)N4CCCC4)cc3)nn2)cc1OC` the Potency was inconclusive: 12.6 µM [rising, partial curve].
In the case of `C=CCn1c(SCc2cc(=O)n3ccsc3n2)nc2sc(C)c(C)c2c1=O`, the Potency is reported as inconclusive: 0.398 µM [rising, partial curve].
With `CN(Cc1ccco1)c1ccnc(-c2cccc(NS(C)(=O)=O)c2)n1` the activity change, negative = inhibition was inconclusive: 28.7%.
For `Cc1cc(C)n(-c2ccc(C(=O)OCC(=O)NCc3ccco3)cc2)n1`, the activity change, negative = inhibition was inconclusive: 17.2%.
With `Cc1ccccc1Cn1c(CN2CCN(C(=O)c3ccco3)CC2)nc2c1c(=O)n(C)c(=O)n2C` the activity change, negative = inhibition was inconclusive: 4.18%.
In the case of `c1ccc(SCc2nc(-c3ccccn3)no2)cc1`, the activity change, negative = inhibition is reported as inconclusive: 10.6%.
In the case of `O=c1c(-c2cccs2)nc2cnc(Oc3ccccc3)nc2n1C1CC1`, the Potency is reported as inconclusive: 12.6 µM [rising, partial curve].
In the case of `CC[C@](C)(CN(C)C)OC(=O)c1ccccc1`, the “activity change, negative = inhibition” value is reported as inactive: -2.12% [at 17.1 µM].
With `O=c1c2c3c(sc2n2cnnc2n1-c1ccccc1)N(Cc1ccccc1)CCC3` the “activity change, negative = inhibition” value was inactive: -18.4%.
With `Clc1cccc2sc(N3CCCC3)nc12` the Potency was inconclusive: 3.98 µM [rising, single point].
In the case of `O=C(c1cc2ccccc2oc1=O)N1CCN(c2ccc(N3CCOCC3)nn2)CC1`, the “activity change, negative = inhibition” value is reported as inactive: -0.266%.
In the case of `COc1cc(N[C@@H](C)CCCN)c2ncccc2c1`, the “activity change, negative = inhibition” value is reported as inactive: 5.63% [at 17.1 µM].
In the case of `COc1ccccc1N(C(=O)NCc1ccccc1)C1=NCC(C)S1` (stereo not given), the activity change, negative = inhibition is reported as inconclusive: -20.7%.
For `CCN(CC)c1ccc(NS(=O)(=O)c2ccc3c(c2)oc(=O)n3C)c(C)c1`, the “activity change, negative = inhibition” value was inactive: -29.9%.
With `CCCC(c1nnnn1C1CCCC1)N1CCN(C(=O)c2ccco2)CC1` (stereo not given) the “activity change, negative = inhibition” value was inactive: 2.92%.
With `COC(=O)c1c(NC(=O)c2ccco2)sc(C)c1C` the Potency was active: 10 µM.
For `COc1ccc(NC(=O)CSc2nc3ccccc3c(=O)n2CCC(=O)N2CCCCC2)cc1`, the Potency was inconclusive: 12.6 µM [rising, single point].
For `O=c1c(CCc2ccccc2)nc2cnc(N3CCOCC3)nc2n1CCc1ccccc1`, the activity change, negative = inhibition was inconclusive: 27.9%.
For `Cc1ccc(-n2c3c(cc(C(=O)O)c2=O)C(=O)CC(C)(C)C3)cc1`, the “activity change, negative = inhibition” value was inactive: -6.04%.
For `O=S(Cc1ccc(Cl)cc1)CC(O)COc1ccc(Cl)cc1` (stereo not given), the activity change, negative = inhibition was inconclusive: -7.71% [at 7.6 µM].
With `Cc1ccc(N2CC(c3nc4ccccc4n3C)CC2=O)cc1C` (stereo not given) the Potency was inconclusive: 7.94 µM [rising, partial curve].
In the case of `Cc1ccc(/C(COc2ccccc2O)=N\O)cc1`, the activity change, negative = inhibition is reported as inconclusive: -4.8%.
For `COc1ccc(C2c3c(-c4ccccc4O)n[nH]c3C(=O)N2CCc2ccc(OC)c(OC)c2)cc1` (stereo not given), the activity change, negative = inhibition was inconclusive: -12.6%.
For `CCOC(=O)c1c(-c2ccc(OC)cc2)nc2nonc2c1N`, the activity change, negative = inhibition was inconclusive: 26.7%.
For `COc1ccc(-c2nc(C3CCCCC3)no2)cc1OC`, the Potency was inconclusive: 10 µM [rising, single point].
For `COc1ccc(C2CC(C(F)(F)F)n3nc(CO)c(Cl)c3N2)cc1OC` (stereo not given), the Potency was inconclusive: 2.51 µM [rising, single point].
In the case of `Cc1nc2cnc(OCc3ccccc3)nc2n(C)c1=O`, the Potency is reported as inconclusive: 10 µM [rising, single point].
With `Cc1nnc2n(C3CCCCC3)c(=O)c3c4c(sc3n12)CCC4` the activity change, negative = inhibition was inconclusive: 0.562%.
In the case of `c1cn(CCCNC2=NCCCCC2)cn1`, the “activity change, negative = inhibition” value is reported as inactive: 1.19%.
With `CC1CCN(CC(=O)Nc2sc3c(c2C#N)CCC3)CC1` the “activity change, negative = inhibition” value was inactive: -1.16%.
In the case of `Cc1ccccc1CSc1ncc(C#N)c(N)n1`, the Potency is reported as inconclusive: 20 µM [rising, single point].
With `COc1ccc(CNc2nc3nc(C)cc(C)n3n2)cc1OC` the Potency was inconclusive: 10 µM [rising, partial curve].
For `O=Nc1c(-c2c(O)[nH]c3ccccc23)[nH]c2ccccc12`, the Potency was inconclusive: 2.51 µM [rising, partial curve] and the activity change, negative = inhibition was inconclusive: 27% [cytotoxic].
For `c1ccc(C2=Nn3c(nnc3-c3cccnc3)SC2)cc1`, the activity change, negative = inhibition was inconclusive: 19.7%.
For `COc1ccc(Cl)cc1C(=O)Nc1ccccc1N1CCN(C(=O)C(C)C)CC1`, the Potency was active: 12.6 µM.
In the case of `CCOc1cccc(-c2nnc3sc(COc4ccc(C)cc4)nn23)c1`, the “activity change, negative = inhibition” value is reported as inactive: -2.2%.
With `Cc1cc(Nc2cccc(C)c2C)n2nc(C)nc2n1` the Potency was inconclusive: 10 µM [rising, single point].
For `O=S(=O)(NCc1cn2ccsc2n1)c1cccs1`, the “activity change, negative = inhibition” value was inactive: -2.78%.
For `O=C(NCc1ccccc1)c1c(F)c(F)c(F)c(F)c1F`, the Potency was inconclusive: 15.8 µM [falling, partial curve].
With `CN1Cc2cc(C(=O)c3cc(Cl)cc(CSc4ncccn4)c3O)cnc2NC1=O` the Potency was active: 3.98 µM.
With `COc1ccc(-c2nc(N3CCCC3)nc3nn4c(C)cc(C)nc4c23)cc1` the “activity change, negative = inhibition” value was inactive: 8.51%.
For `O=C(CSc1ncn(-c2ccccc2)n1)Nc1ccc(Br)cn1`, the activity change, negative = inhibition was inconclusive: 4.9%.
In the case of `CC(C)(C)NC(=O)Cn1c(=O)oc2ccc(Cl)cc21`, the “activity change, negative = inhibition” value is reported as inactive: -0.882%.
With `CC[C@@]1(O)C(=O)COc2c1cc1n(c2=O)Cc2c-1nc1cccc(C(C)C)c1c2[Si](C)(C)C` the Potency was active: 12.6 µM.
In the case of `COc1cccc(NC(=O)Cn2c(=O)n(CCCC(=O)NCc3ccco3)c(=O)c3ccccc32)c1`, the activity change, negative = inhibition is reported as inconclusive: 1.42%.
In the case of `[O-][n+]1onc2c1CCC1N(O)C(c3ccccc3)CC21O` (stereo not given), the Potency is reported as active: 3.16 µM.
